Test results reported in PubChem BioAssay AID1460 (National Center for Advancing Translational Sciences (NCATS), 2008).
Values joined by “and” are separate entries in the source; they are usually repeats but may differ in a detail not shown here. Equal values may be shown once. Among all 270,000 compounds or so, about 5,800 (2.1%) were called active. The inconclusive results got no clear call from the source; some entries with a clear call stand among them for comparison. Calls follow the shape of the dose curve; as a rule, active = well fitted inhibition curve with a large enough effect; inconclusive = small, poorly fitted or top-dose-only effect; inactive = flat fitted curve, though single readings scatter. A potency beside an inconclusive call is a rough fit, not a confirmed value.

Biological target: Microtubule-associated protein tau (Homo sapiens) (UniProt P10636)
Test: qHTS for Inhibitors of Tau Fibril Formation, Thioflavin T Binding; also: nearly all actives have a fitted effect of over 55% in size
Settings: recombinant tau K18 P301L (four-repeat tau fragment), heparin-induced fibrillization, ThT fluorescence; series mostly up to 57.4 µM
Procedure, shortened: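 In this qHTS, human K18 P301L tau is incubated with compound and heparin for 6 hr at 37 C, and Thioflavin T fluorescence then reports fibril load.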
Potency is read from the fitted curve at half-maximal effect; tags tell the direction and shape of the fitted curve.

UniProt P10636, sequence (P10636 whole entry, looked up): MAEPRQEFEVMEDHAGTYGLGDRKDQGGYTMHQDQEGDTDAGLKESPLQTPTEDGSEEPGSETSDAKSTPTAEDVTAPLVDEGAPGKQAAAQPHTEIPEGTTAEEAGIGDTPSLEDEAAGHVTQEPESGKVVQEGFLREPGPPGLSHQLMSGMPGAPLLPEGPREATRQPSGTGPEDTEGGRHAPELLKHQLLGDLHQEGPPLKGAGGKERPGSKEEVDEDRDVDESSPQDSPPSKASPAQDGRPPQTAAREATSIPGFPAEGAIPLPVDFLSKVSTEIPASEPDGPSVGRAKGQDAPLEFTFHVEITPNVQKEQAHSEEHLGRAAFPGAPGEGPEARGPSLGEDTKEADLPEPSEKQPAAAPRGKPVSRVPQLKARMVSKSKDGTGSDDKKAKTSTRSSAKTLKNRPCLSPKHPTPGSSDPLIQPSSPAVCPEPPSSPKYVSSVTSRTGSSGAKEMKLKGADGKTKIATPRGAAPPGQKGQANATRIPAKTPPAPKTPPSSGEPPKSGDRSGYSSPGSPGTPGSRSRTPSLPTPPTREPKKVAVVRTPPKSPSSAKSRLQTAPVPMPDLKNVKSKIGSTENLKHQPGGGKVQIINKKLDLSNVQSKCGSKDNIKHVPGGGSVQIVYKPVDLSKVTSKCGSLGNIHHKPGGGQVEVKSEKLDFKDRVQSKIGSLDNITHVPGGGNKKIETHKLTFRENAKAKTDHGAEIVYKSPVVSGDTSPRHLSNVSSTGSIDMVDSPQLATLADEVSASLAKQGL

SMILES	Potency
O=C(C1CCCN(Cc2cccnc2)C1)N1CCCCC1 (stereo not drawn)	inconclusive: 25.1 µM [inhibitor, partial curve, poor fit]
O=C(NCCNc1ccc([N+](=O)[O-])cc1)c1cccc(Br)c1	inconclusive: 4.47 µM [inhibitor, partial curve]
CCCCCCCCOC(=O)CCc1c(C)[nH]c(=S)[nH]c1=O	inactive
COC1=CC(=O)C(C(=O)c2ccccc2)=CC1=O	active: 3.16 µM
Cc1cc(C)c2oc(-c3ccc(Cl)c(NC(=O)c4cccs4)c3)nc2c1	inconclusive: 1.12 µM [inhibitor, full curve, poor fit]
COc1cccc(NS(=O)(=O)c2cc(C)ccc2OC)c1	inactive
COc1cc(/C=C2/SC(=S)NC2=O)ccc1OS(=O)(=O)c1ccc(C)cc1	active: 15.8 µM
COc1ccc2cc(-c3cc(C(=O)O)c4ccccc4n3)ccc2c1	inconclusive: 39.8 µM [activator, single point]
COc1ccc(-c2cc3ccc(O)c(CN4CCCC4)c3oc2=O)cc1	inconclusive: 31.6 µM [activator, partial curve, poor fit]
Cc1cc(C(=O)Nc2ccc(Cl)cc2)c(C)n1-c1ccccc1	inconclusive: 12.6 µM [inhibitor, partial curve, poor fit]
Cc1cc2c(cc1C)N(C(=O)CSc1nncn1C)C(C)(C)c1ssc(=S)c1-2	active: 20 µM
Nc1ccc2c(c1)OC1(CCCC1)O2	active: 12.6 µM
CCCCc1ccc(NC(=S)N2CCN(c3ncccn3)CC2)cc1	inconclusive: 22.4 µM [inhibitor, partial curve, poor fit]
CCC(=O)OC1(C)C(=O)C=C2C=C(c3ccsc3)OC=C2C1=O (stereo not drawn)	inactive and inconclusive: 12.6 µM [inhibitor, partial curve]
NS(=O)(=O)c1ccc(N/N=C/c2ccccc2C(=O)O)c([N+](=O)[O-])c1	inconclusive: 25.1 µM [inhibitor, partial curve]
Brc1ccc(C2=Nc3ccccc3C(c3ccncc3)=NN2)cc1	inconclusive: 0.316 µM [inhibitor, full curve, poor fit]
CCOC(=O)CCCN1CC(O)=C(c2nc(-c3ccc(Cl)cc3)cs2)C1=N	inconclusive: 10 µM [inhibitor, partial curve]
CCOC(=O)c1[nH]c2ccccc2c1NC(=S)Nc1cccc(C)c1	inconclusive: 15.8 µM [inhibitor, partial curve]
CC1=Nc2cc(C(=O)N3CCC(C)CC3)ccc2Sc2ccc(Cl)cc21	inconclusive: 17.8 µM [inhibitor, single point]
COc1ccc(NS(=O)(=O)c2cc3c(cc2C)N(C(C)=O)CCO3)cc1	inactive
CCc1cccc(C)c1NC(=O)Cn1nnc(-c2nc(-c3ccccc3F)no2)c1N	inactive
Cc1cc2c(cc1NS(=O)(=O)c1cccc(C#N)c1)n(C)c(=O)c(=O)n2C	inactive

SMILES	Potency
CCN(CC)C(=O)CSc1nc2ccc(NC(=O)CSc3nccn3C)cc2s1	inconclusive: 25.1 µM [inhibitor, partial curve]
COc1ccc(CNc2ccc3c(c2)ncn3-c2ccccc2OC)cc1	inconclusive: 11.2 µM [inhibitor, partial curve]
CCOc1ccc(NC(=O)CCn2cnc3onc(-c4ccc(F)cc4)c3c2=O)cc1	inactive
COc1cc(OC)cc(C(=O)NC(=S)Nc2ccc(N3CCCC3)cc2)c1	inconclusive: 6.31 µM [inhibitor, partial curve]
CC(=O)c1ccc(NS(=O)(=O)c2ccc(N/C=C/C(=O)c3ccc(F)cc3)cc2)cc1	inconclusive: 10 µM [inhibitor, partial curve]
O=c1ccc2c(o1)/C(=C/C=C(Cl)Cl)CCC2	inconclusive: 14.1 µM [inhibitor, partial curve, poor fit]
Cc1ccc(S(=O)(=O)/N=C2\C(=O)c3ccccc3C([O-])=C2n2cc[n+](CCC(C)C)c2)cc1	inconclusive: 15.8 µM [inhibitor, partial curve]
CC(c1ccccc1)C1OCC(C[N+]2(C)CCCCC2)O1 (stereo not drawn)	inactive
C#CCn1cc(C=C2C(=O)c3ccccc3C2=O)c2ccccc21	inconclusive: 2 µM [inhibitor, full curve]
COc1ccc(Nc2ncnc3c2oc2ccccc23)cc1	inconclusive: 17.8 µM [inhibitor, partial curve]
Cc1ccc(N2C(=O)[C@@H]3[C@H](C2=O)C2c4ccccc4C=CN2[C@@H]3C(=O)c2ccco2)cc1 (stereo partly drawn)	active: 25.1 µM
Cc1ccc(C)c(N2CCN(CCCNC(=O)Cn3ncc4c5ccccc5n(C)c4c3=O)CC2)c1	inconclusive: 22.4 µM [inhibitor, single point]
Fc1cnc(Cl)nc1N1CCN(c2ccccc2)CC1	inconclusive: 1.41 µM [inhibitor, partial curve]
CN1CCc2c(cc(O)c(O)c2Cl)C(c2cccc(Cl)c2)C1 (stereo not drawn)	inconclusive: 25.1 µM [inhibitor, partial curve, poor fit]
O=C(O)c1cc(=O)cc(C(=O)O)[nH]1	inactive
O=C(C1=C[C@H](C2CCCCC2)C[C@H](OCCCCO)O1)N1CCN(Cc2ccccc2)CC1	inconclusive: 0.141 µM [activator, single point]
CCC(C)(C)C1CCc2c(sc(NC(=O)C3c4ccccc4Oc4ccccc43)c2C(N)=O)C1 (stereo not drawn)	inactive
Cc1ccc(-n2c(O)c(C=Nc3ccccc3-c3n[nH]c(=S)[nH]c3=O)c3ccccc3c2=O)c(C)c1	inconclusive: 17.8 µM [inhibitor, partial curve]
O=C(NCCc1ccccc1)/C(=C/c1ccco1)c1ccccc1	inconclusive: 22.4 µM [inhibitor, partial curve, poor fit]
O=C(NC(=S)Nc1ccccc1[N+](=O)[O-])c1ccccc1	inactive
Clc1ccc(-n2c(SC/C=C/c3ccccc3)nnc2-c2cccnc2)cc1	inconclusive: 25.1 µM [inhibitor, partial curve]
